Data reported in the supplement of paper PMC11417369.
± gives the standard deviation of the averaged measurements. The list shows a part of the results.

Test system: PfAP2-LT AP2 domain (GST-tagged)
Test: gcPBM binding intensity (ln(normalized median fluorescence intensity)); higher = stronger DNA binding
Summary of the method: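 For binding intensity, the highest Masliner-normalised natural-log median intensity across replicate spots of either probe orientation was taken. Protein bound to the array was stained with Alexa488 anti-GST antibody and scanned at 488 nm. The protein, GST-tagged P. falciparum DNA-binding domains from E. coli at about 25 μg on average, had been applied for 1 h to an Agilent 4 × 180k array of primer-extended double-stranded 36-bp intergenic genomic probes and negative controls.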

Row | Sequence | gcPBM binding intensity (ln)
1 | GTAATATATTTTTATGGTACACGAACTAGCCAAAAA [XGTACX_site6307] | 8.75 ± 0.38
2 | TAATATATTTATAAGTGTACACATTATATAAATCCC [XGTACX_site8875] | 8.73 ± 0.33
3 | CCGCATTTTACAGACACACACAATTTATATTACGGT [CACACA_site6974] | 9.26 ± 0.33
4 | AGTAATAACTATATATGTACATATATATATTATTAG [XGTACX_site1113] | 8.79 ± 0.4
5 | TTTTTTTTTTTAAATACATGCATGTCCTATTTAAAT [TGCATGCA_site494] | 8.9 ± 0.61
6 | TTTTTTTGATAAAAGGTGCTACAAGATGAATACATA | 8.38 ± 0.42
7 | GTTGTATAAAATAATACATGCATGTCCTACATATAT [TGCATGCA_site162] | 9.35 ± 0.45
8 | ATAAATAAAAAAAAAAAAAAAAAAAAAAAAAAAATA [CACACA_negctrl_site1064] | 8.46 ± 0.61
9 | ATAATATAAATAATTATACACACTTAATATATATAT [CACACA_site2782] | 8.76 ± 0.45
10 | GTATGTATGTATGTATGTACGTATTTATTTATTTAA [XGTACX_site726] | 9.05 ± 0.32
11 | AAGAAAAATAATTAGGGTGAAAATATATAGAGTAAA [TGCATGCA_negctrl_site590] | 8.7 ± 0.54
12 | ACACATATATATATATATATATATATATATATATAT [CACACA_negctrl_site1766] | 9.935 ± 0.035
13 | CAATTCTTAAGTTCTTGTACGAAAAACGACAATTTA [XGTACX_site3890] | 8.38 ± 0.44
14 | TATTATATAAAATATTTTATTATATCATCTTCTCTA [XGTACX_negctrl_site319] | 8.43 ± 0.59
15 | GGTAATAATATGCATAGTACATAATATATATATATA [XGTACX_site6793] | 9.14 ± 0.38
16 | ATCATATTTTTATGTGTGCACTTTTTTTTTTTTTTT [GTGCAC_site9555] | 9.27 ± 0.35
17 | CTCTTATACATATTCCTGCACTTATTTTTAAAAACA [GTGCAC_site9620] | 8.73 ± 0.39
18 | AAAAATGGTGTTAACACACACATATAAATAAATATA [CACACA_site6412] | 9 ± 0.35
19 | TAAATGTGAAATTTTATATTTTATATAATATACAAT [CACACA_negctrl_site76] | 8.35 ± 0.38
20 | AAGGATCACCCACAAACACACATATATATATATATA [CACACA_site559] | 10.2 ± 0.28
21 | AACATAAGTAATATTTGTACATATATAATAATATAT [XGTACX_site5123] | 8.76 ± 0.44
22 | AACATGCAAACATGCACACAGAAAAAAAAAATATAT [CACACA_site1565] | 9.36 ± 0.44
23 | TTACACATACATATGTGGGAAAATATTGCTACATAT [CACACA_negctrl_site463] | 8.94 ± 0.39
24 | AAGAAAAGCATAGATGCACACATATATATATATATA [CACACA_site8675] | 10.2 ± 0.32
